{"source": "the supplement of paper PMC8728848", "binders": {"B1": {"name": "Banana lectin (Musa acuminata) (protein)", "chain": "MNGAIKVGAHGGNGGSAFDMGPAYRIISVKIFSGDVVDGVDVTFTYYGKTETRHYGGSGGTPHEIVLQEGEYLVGMAGEVANYHGAVVLGKLGFSTNKKAYGPFGNTGGTPFSLPIAAGKISGFFGRGGKFLDAIGVYLEPLEHHHHHH"}}, "assay_in_all_cases": "glycan array binding signal (z-score within array); higher = stronger binding", "details_in_all_cases": "glycan notation: IUPAC condensed, linker removed; mutation: W10H", "key": {"[1]": {"target": "Neu5Ac(a2-3)Gal(b1-4)GlcNAc(b1-3)[Neu5Ac(a2-3)Gal(b1-4)GlcNAc(b1-6)]GalNAc", "method_in_brief": "(§1)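 Glycan array data came from 3228 arrays in the Consortium for Functional Glycomics database, and only arrays with an available protein sequence were kept. Glycan names were put into IUPAC-condensed notation, and columns mapping to the same glycan were averaged. The binding signal is a within-array Z-score, averaged across arrays of one protein sequence run at different concentrations or buffers and across linkers. A negative Z-score can be read as non-binding.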"}, "[2]": {"target": "Neu5Ac(a2-3)Gal(b1-4)GlcNAc(b1-6)GalNAc", "method_in_brief": "as §1"}, "[3]": {"target": "Neu5Ac(a2-3)Gal(b1-4)GlcNAc(b1-6)[Gal(b1-3)]GalNAc", "method_in_brief": "as §1"}, "[4]": {"target": "Neu5Ac(a2-3)Gal(b1-4)GlcNAc(b1-6)[Neu5Ac(a2-3)Gal(b1-3)]GalNAc", "method_in_brief": "as §1"}, "[5]": {"target": "Neu5Ac(a2-3)Gal(b1-4)GlcNAc6S", "method_in_brief": "as §1"}, "[6]": {"target": "Neu5Ac(a2-3)Gal(b1-4)[Fuc(a1-3)]GlcNAc", "method_in_brief": "as §1"}, "[7]": {"target": "Neu5Ac(a2-3)Gal(b1-4)[Fuc(a1-3)]GlcNAc(b1-2)Man", "method_in_brief": "as §1"}, "[8]": {"target": "Neu5Ac(a2-3)Gal(b1-4)[Fuc(a1-3)]GlcNAc(b1-3)Gal", "method_in_brief": "as §1"}, "[9]": {"target": "Neu5Ac(a2-3)Gal(b1-4)[Fuc(a1-3)]GlcNAc(b1-3)Gal(b1-4)GlcNAc", "method_in_brief": "as §1"}, "[10]": {"target": "Neu5Ac(a2-3)Gal(b1-4)[Fuc(a1-3)]GlcNAc(b1-3)Gal(b1-4)[Fuc(a1-3)]GlcNAc(b1-3)Gal(b1-4)[Fuc(a1-3)]GlcNAc", "method_in_brief": "as §1"}, "[11]": {"target": "Neu5Ac(a2-3)Gal(b1-4)[Fuc(a1-3)]GlcNAc(b1-3)GalNAc", "method_in_brief": "as §1"}, "[12]": {"target": "Neu5Ac(a2-3)Gal(b1-4)[Fuc(a1-3)]GlcNAc(b1-6)[Gal(b1-3)]GalNAc", "method_in_brief": "as §1"}, "[13]": {"target": "Neu5Ac(a2-3)Gal(b1-4)[Fuc(a1-3)]GlcNAc(b1-6)[Neu5Ac(a2-3)Gal(b1-3)]GalNAc", "method_in_brief": "as §1"}, "[14]": {"target": "Neu5Ac(a2-3)Gal(b1-4)[Fuc(a1-3)]GlcNAc6S", "method_in_brief": "as §1"}, "[15]": {"target": "Neu5Ac(a2-3)Gal6S(b1-4)GlcNAc", "method_in_brief": "as §1"}, "[16]": {"target": "Neu5Ac(a2-3)Gal6S(b1-4)[Fuc(a1-3)]GlcNAc", "method_in_brief": "as §1"}, "[17]": {"target": "Neu5Ac(a2-3)GalNAc", "method_in_brief": "as §1"}, "[18]": {"target": "Neu5Ac(a2-3)GalNAc(b1-4)GlcNAc", "method_in_brief": "as §1"}, "[19]": {"target": "Neu5Ac(a2-3)[GalNAc(b1-4)]Gal(b1-4)Glc", "method_in_brief": "as §1"}, "[20]": {"target": "Neu5Ac(a2-3)[GalNAc(b1-4)]Gal(b1-4)GlcNAc", "method_in_brief": "as §1"}, "[21]": {"target": "Neu5Ac(a2-3)[GalNAc(b1-4)]Gal(b1-4)GlcNAc(b1-3)GalNAc", "method_in_brief": "as §1"}, "[22]": {"target": "Neu5Ac(a2-3)[Neu5Ac(a2-6)]GalNAc", "method_in_brief": "as §1"}, "[23]": {"target": "Neu5Ac(a2-6)Gal", "method_in_brief": "as §1"}, "[24]": {"target": "Neu5Ac(a2-6)Gal(b1-3)GlcNAc(b1-3)[Gal(b1-4)GlcNAc(b1-6)]Gal(b1-4)Glc", "method_in_brief": "as §1"}, "[25]": {"target": "Neu5Ac(a2-6)Gal(b1-4)Glc", "method_in_brief": "as §1"}, "[26]": {"target": "Neu5Ac(a2-6)Gal(b1-4)GlcNAc", "method_in_brief": "as §1"}, "[27]": {"target": "Neu5Ac(a2-6)Gal(b1-4)GlcNAc(b1-2)Man", "method_in_brief": "as §1"}, "[28]": {"target": "Neu5Ac(a2-6)Gal(b1-4)GlcNAc(b1-2)Man(a1-3)Man(b1-4)GlcNAc(b1-4)GlcNAc", "method_in_brief": "as §1"}, "[29]": {"target": "Neu5Ac(a2-6)Gal(b1-4)GlcNAc(b1-2)Man(a1-3)[Gal(b1-4)GlcNAc(b1-2)Man(a1-6)]Man(b1-4)GlcNAc(b1-4)GlcNAc", "method_in_brief": "as §1"}, "[30]": {"target": "Neu5Ac(a2-6)Gal(b1-4)GlcNAc(b1-2)Man(a1-3)[GlcNAc(b1-2)Man(a1-6)]Man(b1-4)GlcNAc(b1-4)GlcNAc", "method_in_brief": "as §1"}, "[31]": {"target": "Neu5Ac(a2-6)Gal(b1-4)GlcNAc(b1-2)Man(a1-3)[GlcNAc(b1-4)][Neu5Ac(a2-6)Gal(b1-4)GlcNAc(b1-2)Man(a1-6)]Man(b1-4)GlcNAc(b1-4)GlcNAc", "method_in_brief": "as §1"}}, "note": "This is one part of the list."}
{"binder": "B1", "values": [{"measurement": "glycan array binding signal (z-score)", "setting": "[1]", "value": -0.134}, {"measurement": "glycan array binding signal (z-score)", "setting": "[2]", "value": -0.165}, {"measurement": "glycan array binding signal (z-score)", "setting": "[3]", "value": -0.183}, {"measurement": "glycan array binding signal (z-score)", "setting": "[4]", "value": -0.141}, {"measurement": "glycan array binding signal (z-score)", "setting": "[5]", "value": -0.212}, {"measurement": "glycan array binding signal (z-score)", "setting": "[6]", "value": -0.196}, {"measurement": "glycan array binding signal (z-score)", "setting": "[7]", "value": -0.192}, {"measurement": "glycan array binding signal (z-score)", "setting": "[8]", "value": -0.157}, {"measurement": "glycan array binding signal (z-score)", "setting": "[9]", "value": -0.111}, {"measurement": "glycan array binding signal (z-score)", "setting": "[10]", "value": -0.199}, {"measurement": "glycan array binding signal (z-score)", "setting": "[11]", "value": -0.167}, {"measurement": "glycan array binding signal (z-score)", "setting": "[12]", "value": -0.169}, {"measurement": "glycan array binding signal (z-score)", "setting": "[13]", "value": -0.144}, {"measurement": "glycan array binding signal (z-score)", "setting": "[14]", "value": -0.176}, {"measurement": "glycan array binding signal (z-score)", "setting": "[15]", "value": -0.172}, {"measurement": "glycan array binding signal (z-score)", "setting": "[16]", "value": -0.184}, {"measurement": "glycan array binding signal (z-score)", "setting": "[17]", "value": -0.199}, {"measurement": "glycan array binding signal (z-score)", "setting": "[18]", "value": -0.13}, {"measurement": "glycan array binding signal (z-score)", "setting": "[19]", "value": -0.173}, {"measurement": "glycan array binding signal (z-score)", "setting": "[20]", "value": -0.147}, {"measurement": "glycan array binding signal (z-score)", "setting": "[21]", "value": -0.16}, {"measurement": "glycan array binding signal (z-score)", "setting": "[22]", "value": -0.176}, {"measurement": "glycan array binding signal (z-score)", "setting": "[23]", "value": -0.145}, {"measurement": "glycan array binding signal (z-score)", "setting": "[24]", "value": -0.185}, {"measurement": "glycan array binding signal (z-score)", "setting": "[25]", "value": -0.191}, {"measurement": "glycan array binding signal (z-score)", "setting": "[26]", "value": -0.191}, {"measurement": "glycan array binding signal (z-score)", "setting": "[27]", "value": -0.149}, {"measurement": "glycan array binding signal (z-score)", "setting": "[28]", "value": -0.165}, {"measurement": "glycan array binding signal (z-score)", "setting": "[29]", "value": -0.122}, {"measurement": "glycan array binding signal (z-score)", "setting": "[30]", "value": -0.134}, {"measurement": "glycan array binding signal (z-score)", "setting": "[31]", "value": -0.166}]}
